# Results taken from PubChem BioAssay AID485273 (Sanford-Burnham Center for Chemical Genomics, 2010).
# About 1,500 (0.45%) of roughly 330,000 compounds were called active. The inconclusive results got no clear call from the source; some entries with a clear call stand among them for comparison. Rule as the data show it: active = inhibition above about 45% (passing the limit was not always enough); inconclusive = no clear call, values can overlap the other calls.
# Target: Ubiquitin-conjugating enzyme E2 N (Homo sapiens) (UniProt P61088)
# Assay: UBC13 polyubiquitin chain formation inhibitors, primary screen, biochemical, TR-FRET, uHTS (AID 485273)
# Details: at 20 µM, hits give high values
# Chain of UniProt P61088 (P61088 whole entry, looked up): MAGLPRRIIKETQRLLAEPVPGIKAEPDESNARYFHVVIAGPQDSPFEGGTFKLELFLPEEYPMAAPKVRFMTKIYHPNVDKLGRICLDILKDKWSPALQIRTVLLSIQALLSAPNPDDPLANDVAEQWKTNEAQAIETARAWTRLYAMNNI
row,Structure (SMILES),inhibition
1,COc1ccc(-n2c(-c3ccc(Br)cc3)nc(=S)c3c2CCCC3)cc1,inconclusive: 59.1%
2,Cn1c(=O)cc(SCC(=O)N2CCN(C3CCCCC3)CC2)c2ccccc21,active: 66.2%
3,COc1ccc(-n2c(=S)[nH]c3c(oc4ccccc43)c2=O)cc1,inconclusive: 91.6%
4,Cc1cccc(N(C(=O)c2snc(C(N)=O)c2N)C(C(=O)NC2CCCC2)c2ccc(C)o2)c1 (stereo not given),active: 54.6%
5,COc1ccc(-c2c(-c3cc(OC)cc(OC)c3)n(C)c3ccc(-c4ccc5c(c4)OCCO5)cc23)cc1,inconclusive: 48.3%
6,COc1ccc(C)cc1S(=O)(=O)N(C)CC(=O)Nc1ccc2c(c1)OCO2,inconclusive: 89.9%
7,S=c1[nH]nc(-c2ccc(Cl)cc2Cl)n1-c1ccc2c(c1)OCCO2,inactive: -2.6%
8,CCOc1ccc2nc(NC(=O)c3ccc(S(=O)(=O)N4CCOCC4)cc3)sc2c1,inconclusive: 72.4%
9,O=C(CN1CCc2cc3c(cc2C1)OCCCO3)Nc1cccc(Br)c1,inactive: 2.6%
10,COc1cc(C(CCN2CCCC2)c2c(OC)cc(OC)c3c(-c4ccccc4)cc(=O)oc23)cc(OC)c1OC (stereo not given),active: 45.7%
11,Cc1ccc(S(=O)(=O)N2CCC(C(=O)NCCN3CCCCCC3)CC2)cc1,inactive: 22.1%
12,O=C(CSc1ccc2ccccc2n1)N/N=C/c1ccccc1O,inactive: 6.6%
13,S=c1nc(C2CC2)[nH]c2ccccc12,inconclusive: 81.1%
14,COc1cccc(NC(=O)c2sc3nc(N4CCOCC4)c4c(c3c2N)CCCC4)c1,inconclusive: 70.1%
15,N#Cc1c(-c2cccs2)nc(SCc2ccc(Cl)cc2)[nH]c1=O,inconclusive: 83.2%
16,CCOCCCNC(=O)c1ccc(OC)cc1,inconclusive: 85.6%
17,CCN(CC(=O)NC1CCS(=O)(=O)C1)Cc1nc2c(Br)cc(Br)cc2c(=O)[nH]1 (stereo not given),inconclusive: 70.6%
18,COc1cc(C(=O)N2CCCN(c3nc4cc(C)ccc4cc3C#N)CC2)cc(OC)c1OC,inconclusive: 55.4%
19,CN(C)C/C=C/C(=O)Nc1cccc(-c2c[nH]c3ncnc(Oc4ccc(NC(=O)CC(=O)Nc5ccc(F)cc5)cc4F)c23)c1,active: 112%
20,c1ccc(-c2nc3cccnc3nc2-c2ccccc2)cc1,inconclusive: 84.7%
21,O=C(Nc1nc2c(Br)cc(Br)cc2c(=O)s1)C1CCC1,inconclusive: 77.3%
22,CCCCCCCc1c(C#N)c(N)[nH]c(=S)c1C#N,inconclusive: 76.7%

row,Structure (SMILES),inhibition
1,O=C(O)CCCCCNc1ncnc2ccc(Br)cc12,inconclusive: 71%
2,Cc1ccc(NC(=O)CSc2nnnn2-c2cccnc2)c(C)c1,inactive: 2.5%
3,COc1ccc(C(CCN2CCCC2)c2c(OC)cc(OC)c3c(-c4ccccc4)cc(=O)oc23)cc1 (stereo not given),active: 66.6%
4,CCCCC1=CC2=C(c3ccco3)C(=O)C(C)(OC(=O)c3ccc(OC)cc3)C(=O)C2=CN1Cc1ccc2c(c1)OCO2 (stereo not given),inconclusive: 52.9%
5,CCCCc1c(O)c2cccc3c2n(c1=O)CCC3,inconclusive: 86.6%
6,Cc1ccc(OS(=O)(=O)c2ccc(-c3csc(C)n3)s2)c(C)c1,inconclusive: 67.1%
7,C/C(=N\NC(=O)c1cccc(Cl)c1)C1C(=O)c2ccccc2C1=O,inactive: -25.9%
8,O=C(NC1CCN(Cc2ccc(Cl)cc2)CC1)c1cn(-c2ccccc2)nc1-c1cccnc1,inactive: 17.7%
9,CCOC(=O)C1CCCN(C(=O)c2cccc3ccccc23)C1 (stereo not given),inactive: 2.1%
10,CC(=O)c1ccc(Sc2ccccc2)cc1,inconclusive: 53%
11,C/C(=N\NC(=S)NCC(C)(C)C)c1cc(F)cc(F)c1O,inactive: 11.2%
12,CC(=O)Nc1ccc2c(c1)C(=O)N(c1cccc(C)c1)C2=O,active: 45.7%
13,S=c1nc[nH]c2c1sc1nc(-c3ccccc3)c3c(c12)CCCC3,inconclusive: 47.3%
14,O=C(c1cnc(N2CCN(c3ccccn3)CC2)c2ccccc12)N1CCN(c2cccc(Cl)c2)CC1,inconclusive: 61.8%
15,N=c1sc2ccccc2n1-c1ccccc1,inconclusive: 86.7%
16,COc1ccc(-c2oc3ccc(-c4cc(OC)c(OC)c(OC)c4)cc3c2-c2ccc(OC)nc2)cc1,inconclusive: 69.8%
17,O=C(Nc1cc([N+](=O)[O-])ccc1F)C1CC1,inactive: 0%
18,COc1ccc(C2C(C#N)=C(N)Oc3cccc(O)c32)cc1 (stereo not given),inactive: 6.7%
19,CNC(=O)NC(=O)CSc1nc(-c2cccs2)c(C#N)c(=O)[nH]1,inconclusive: 90.4%
20,COc1ccc(-n2nc(C(=O)NCC(=O)NCc3cccc(F)c3)c3ccccc3c2=O)cc1Cl,inconclusive: 78.7%
21,CCOc1cc(C2C(C(=O)OC)=CN(C3CCCC3)C=C2C(=O)OC)cc(Br)c1O,inconclusive: 50.6%
22,NS(=O)(=O)c1ccc(CCNC(=O)CCCCCn2c(=S)[nH]c3ccc(Br)cc3c2=O)cc1,inconclusive: 56.3%

row,Structure (SMILES),inhibition
1,COc1cc(OC)cc(-c2oc(=O)c3cc(OC)c(OC)cc3c2C#CCCO)c1,inconclusive: 61.7%
2,COc1ccc(-n2cc(CN[C@H]3CCCCNC3=O)c(-c3cccc(F)c3)n2)cc1,inactive: 8.4%
3,Cc1ccccc1-n1nc2c(c1NC(=O)CC(C)C)CS(=O)C2 (stereo not given),inactive: -1.7%
4,C/C(=N\NC(=O)c1ccc(Br)cc1)c1ccccc1,inactive: -1.6%
5,Nc1c(C(=O)NCCc2ccccc2)sc2nc(N3CCOCC3)c3c(c12)CCCC3,inconclusive: 94.5%
6,O=C(CCCN1CCC(O)(c2cccc(C(F)(F)F)c2)CC1)c1ccc(F)cc1,inactive: 26.4%
7,C#CCOCCOCCOCCNc1nc(N2CCN(C(=O)[C@H](Cc3cc4ccccc4[nH]3)n3cc([C@@H](N)C(C)CC)nn3)CC2)nc(N2CCN(C(=O)[C@H](Cc3cc4ccccc4[nH]3)n3cc([C@@H](N)Cc4ccc(O)cc4)nn3)CC2)n1 (stereo not given in full),active: 124%
8,COc1ccc(CN(Cc2ccccn2)S(=O)(=O)c2ccc(-n3cnnn3)c(OC)c2)cc1,inconclusive: 89.8%
9,CCC(=O)N1N=C(c2c(O)n(C)c(=O)n(C)c2=O)CC1c1ccccc1 (stereo not given),inconclusive: 47.3%
10,COc1ccc(N2C(=NC(C)=O)SC3CS(=O)(=O)CC32)cc1OC (stereo not given),inconclusive: 87.7%
11,CC(C)(C)Nc1nc(Cl)nc(NC(C)(C)C)n1,inconclusive: 68.3%
12,Cc1nc(N2CCN(c3ccccn3)CC2)c2c(C)c(C(=O)Nc3ccc(Br)cc3C)sc2n1,inconclusive: 76.5%
13,Cc1ccc2nc(N/N=C\c3ccc([N+](=O)[O-])o3)nc(-c3ccccc3)c2c1,inactive: -143%
14,COc1ccc2c(C(=O)NCc3ccc4c(c3)OCO4)c(-c3ccc(S(C)(=O)=O)cc3)sc2c1,inconclusive: 89.3%
15,CCCc1nc2ccccc2c(=O)n1NC(=O)c1c(O)c2ccccc2n(C)c1=O,active: 46.8%
16,CC(C)(C)C(=O)Oc1ccc2cc(-c3ccc4ccccc4n3)c(=O)oc2c1,inconclusive: 73.3%
17,CCOC(=O)[C@@H]1[C@H]2COc3cc(OC)ccc3[C@H]2N2C(=O)N(c3ccc(Cl)cc3)C(=O)[C@]12C,inconclusive: 68.2%
18,Brc1ccc2ncnc(NCc3ccco3)c2c1,inconclusive: 58.8%
19,CCCCCCCCCCOC(=O)Cn1c(COc2ccc(Cl)cc2)[n+](C)c2ccccc21,active: 99.8%
20,CCN(CC(=O)Nc1cc(Cl)ccc1C)c1ncnc2sc(C)c(C)c12,inconclusive: 70.2%
21,CC(C)Cn1c(=O)c(C(=O)Nc2ccncc2)c(O)c2ccccc21,inconclusive: 96.3%
22,CCOC(=O)N1CCN(c2nc(C)cc(C(F)(F)F)n2)CC1,inactive: 5.1%

row,Structure (SMILES),inhibition
1,CCOc1ccc(C2C(C#N)=C(N)SC(N)=C2C#N)c(OCC)c1,inconclusive: 67.5%
2,COC(=O)CSc1nc(NC(C)C)nc(N2CCOCC2)n1,inconclusive: 64.2%
3,N#CCc1ccc(NC(=O)c2ccc(CN3CCc4ccccc4C3)cc2)cc1,inactive: 1%
4,COc1ccc2nc3oc(C(=O)NC4CCN(Cc5ccccc5)CC4)cc3cc2c1,active: 58.5%
5,Cc1ccc2cc(C#N)c(N3CCCN(S(=O)(=O)c4ccccc4)CC3)nc2c1,inconclusive: 52%
6,CCOc1cc(C=O)c(Br)cc1OC1CCCC1,inconclusive: 83.2%
7,CCCN1C(=S)c2ccccc2C1c1ccccc1 (stereo not given),inconclusive: 79.2%
8,NC(=O)c1sc2nc(N3CCCCC3)c3c(c2c1N)CCCC3,inconclusive: 86.6%
9,CCOc1cc(C2C(C#N)=C(N)SC(N)=C2C#N)ccc1OCCN1CCOCC1,inconclusive: 81.5%
10,S=c1nc(Cc2ccc(Cl)cc2)[nH]c2ccccc12,inconclusive: 77.6%
11,CC/C(=N\Nc1ccnc2cc(Cl)ccc12)c1ccc(O)cc1,inactive: 10%
12,CCCC[C@H](CN[C@@H](CNC)[C@H](C)CC)NCCC12CCC(CC1)C2,active: 47.9%
13,Cc1nc(N2CCN(c3ccccn3)CC2)c2c(C)c(C(=O)Nc3ccccc3F)sc2n1,inconclusive: 77.2%
14,CCOC(=O)c1c(CN2CCN(c3ccccc3)CC2)oc2ccc(O)cc12,active: 91.4%
15,O=C(NCCc1nnc2ccc(N3CCCC3)nn12)c1ccccc1,inactive: -7.9%
16,COc1cccc(NC(=O)CSc2nnc(-c3ccc(C)cc3)o2)c1,inactive: -0.7%
17,CCOC(=O)CSc1nc2cc3c(cc2cc1C#N)OCCO3,inconclusive: 61.2%
18,CCOC(=O)c1c(C)[nH]c(=S)c(C#N)c1-c1ccccc1,inconclusive: 74.4%
19,CN1CCN(C(=O)CCN2C(=O)/C(=C/c3ccccc3Cl)SC2=S)CC1,active: 69.3%
